Results reported in PubChem BioAssay (NCI).
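In this assay, cells in 96-well plates receive the compound at five concentrations for 48 hours. Endpoints are linearly interpolated between the surrounding concentrations. GI50 = concentration required for 50% inhibition of growth. TGI is the concentration that stops growth completely.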 Peptide text beside a SMILES is read from it.

system: NCI-H322M lung; assay: NCI anticancer screen, dose series, 48 h

SMILES | TGI [µM] | GI50 [µM]
O=C1OCCC[C@H]2O[C@@H](COCc3ccccc3)C[C@@H]12 | > 100 | 
c1ccc2c3nnc(c2c1)SCCCSc1nnc(c2ccccc12)SCCCS3 | > 100 | 
CCCc1n(Cc2ccc3ccccc3n2)cc[n+]1Cc1ccc2ccccc2n1 | 35.7 | 4.38
CCSc1nnc(-c2ccccc2)nc1Cc1ccc(OC)cc1 | > 100 | 
O=C1CSC(c2ccccc2O)N1c1nc2cc3sc(N4C(=O)CSC4c4ccccc4O)nc3cc2s1 (stereo not given) | > 100 | 
C[n+]1c2ccccc2c(CNC(CS)C(=O)O)c2ccccc21 (stereo not given) | > 100 | 
CCCCCCC1CC(=O)C1(Cl)Cl (stereo not given) | > 100 | 
O=C1N(CN2CCOCC2)CN(CN2CCOCC2)C(=O)N1Cc1ccc(CN2C(=O)N(CN3CCOCC3)CN(CN3CCOCC3)C2=O)cc1 | > 100 | 
Cc1cccc(/C=N/NC(=S)N(C)CCc2ccccn2)n1 | > 100 | 
O=C(Nc1ncc([N+](=O)[O-])s1)c1ccccc1O | > 86.3 | 
Cc1nc2ccc(N)cc2[nH]c1=O | > 100 | 
Nc1nc2ncn(CC(O)COC(=O)c3ccccc3)c2c(=O)[nH]1 (stereo not given) | > 100 | 
COCCOC1=C(Cl)C(=O)c2c(O)ccc(O)c2C1=O | 24.3 | 
Cc1[nH]n(-c2cccc(Cl)c2)c(=O)c1/C=C1\C=c2ccccc2=CC1=O | > 100 | > 100
COc1cc([N+](=O)[O-])ccc1NC(=O)c1cccc([N+](=O)[O-])c1O | 73.8 | 
O=C(NC(Cc1ccc(I)cc1)C(=O)O)c1ccc(Cl)cc1 (stereo not given) | > 100 | 
NCCNCCCNC(=O)c1cc(-c2ccccc2)nc2ccccc12 | > 100 | 
O=C1/C(=C/c2ccccc2[N+](=O)[O-])COc2ccc(O)c(O)c21 | 10.6 | 2.43
COc1ccc(C(=C2C(=O)N(c3ccccc3)C(=O)C2=C(C)C)c2ccc(OC)cc2)cc1 | > 61.3 | 
CC/C(=N/N=C(N)N)c1ccc(NC(=O)Nc2ccc(/C(CC)=N/N=C(N)N)cc2)cc1 | 39.6 | 16.2
C=C(C)CC(C)(c1cc2ccccc2n1C)N1CCOCC1 (stereo not given) | > 100 | 
O=C1OC2(OC2c2ccc(Cl)cc2)c2ccccc21 (stereo not given) | > 100 | 
COc1c(Br)cc(/C=C(\C#N)c2ccccn2)cc1Br | > 100 | 
COc1cc2c(cc1OC)C(=O)/C(=C/c1cc(Cl)cc(Cl)c1)C2 | > 100 | 
CC1(C)CC(N2CCN(C3CC(C)(C)NC(C)(C)C3)CC2)CC(C)(C)N1 | > 100 | 
Cc1cc2c(cc1C)C(=O)/C(=C/c1ccccc1C(=O)O)C2 | > 100 | 

SMILES | TGI [µM] | GI50 [µM]
CCOC(=O)Nc1cc2c(c(N)n1)N=C(c1ccc3ccccc3c1)CN2 | > 76.5 | 
COCOc1c(C(OCOC)c2cnc(Sc3ccccc3)n2C)ccc(OC)c1OC (stereo not given) | > 100 | 
OCCCCCCCCCCCOc1ccc(C2OCC3(CC=CCC3)CO2)cc1 (stereo not given) | 43.6 | 
CC1OC(OCC2OC(Oc3ccc(C4CC(=O)c5c(O)cc(O)cc5O4)cc3O)C(O)C(O)C2O)C(O)C(O)C1O (stereo not given) | > 100 | 
CC(C)(C)OC(=O)NC(CS(=O)(=O)O)C(=O)O (stereo not given) | > 100 | 
CCCCC(C(=O)CCC(=O)Nc1ccc(Cl)cc1)C(=O)C(C)C (stereo not given) | > 100 | 
CCOC(=O)C1=C(c2ccccc2)N(C(C)=O)Cc2ccccc21 | 82.6 | 
NNc1ncc2c(n1)-c1ccccc1OC2 | > 100 | 
OCc1ccc(N(Cc2ccc(F)cc2)CC2CCC2)cc1Cl | 25 | 12.3
COc1ccc(Nc2nc3ccc(C(F)(F)F)cc3nc2C(=O)O)cc1 | > 100 | 
COc1ccc2c(c1)/C(=C\c1c(Cl)n(-c3ccccc3)c3ccccc13)C(=O)N2 | 53.9 | 
O=C(NCCCNCCCCNCCCNC(=O)c1cc(-c2ccccc2)nc2ccccc12)c1cc(-c2ccccc2)nc2ccccc12 | 16.3 | 
Cc1cc2c(cc1Cl)N1C(=O)NS(=O)(=O)N=C1NS2(=O)=O | > 100 | > 100
Cc1c(N=Nc2ccc(Cl)cc2)c(C)n(C2OC(CO)C(O)C(O)C2O)c(=S)c1C#N (stereo not given) | > 100 | 
CNCCN(C)Cc1cn[nH]c1-c1ccc(OC2CC(OCCC3CCOCC3)C2)cc1 (stereo not given) | > 100 | > 100
CCCCc1ccc(Nc2nc(Cl)c3ncn(C4CC(Oc5ccc(C)cc5)C(COc5ccc(C)cc5)O4)c3n2)cc1 (stereo not given) | > 100 | 
c1c2c(cc3c1OCO3)-c1cc3ccc4c(c3c[n+]1CC2)OCO4 | > 12.5 | 
CC(C)[C@@H]1OC(=O)[C@@H](C)NC(=O)[C@@H]2CCCN2C1=O (HELM PEPTIDE1{[CC(C)[C@H](O[*:1])C(=O)[*:2]].P.[dA]}$PEPTIDE1,PEPTIDE1,1:R1-3:R2$$$V2.0) | > 100 | 
O=C(O)COc1ccc(C(=O)/C(SS/C(C(=O)c2ccc(OCC(=O)O)c(Cl)c2Cl)=C2\C=C(c3ccccc3Cl)SS2)=C2/C=C(c3ccccc3Cl)SS2)c(Cl)c1Cl | > 100 | 
Cc1cc2cc3ccccc3cc2c(=O)[nH]1 | > 10 | 
Clc1ccc(-c2nc3ccc4ccccc4c3c3c2CCCC3)cc1 | > 100 | 
O=C1NC(=O)C(c2c[nH]c3ccccc23)=C1c1ccccc1 | > 25 | > 25
O=S(=O)(Oc1ccc2ccccc2c1-c1c(OS(=O)(=O)C(F)(F)F)ccc2ccccc12)C(F)(F)F | > 100 | 
CO/N=C(\C)c1cccc(Nc2nc3ccccc3c3occc23)c1 | 27.2 | 
COC(=O)NC1C(C)OC(OC2C/C=C(/C)C3C=CC4C(OC5CC(OC6CC(OC7CC(O)C(O)C(C)O7)C(OC7CC(O)C(OC)C(C)O7)C(C)O6)C(O)C(C)O5)C(C)CC(C)C4C3(C)/C(O)=C3\C(=O)OC4(CC(C)C(CO)=CC4/C=C\2C)C3=O)CC1(C)[N+](=O)[O-] (stereo not given) | 28.8 | 
O=c1c2cc(S(=O)(=O)Nc3ccc(Cl)cc3Cl)ccc2ncn1NS(=O)(=O)c1cccc2ccccc12 | > 100 | 
